Data published in the supplement of paper PMC11741623.
Some of the results follow. Interaction screen of human proteins with wild-type SARS-CoV-2 proteins by split-DHFR complementation in yeast, 1 µg/mL methotrexate. Value = fitness of the pair (three or more lineages) minus that of the viral protein without a human partner, on a scale set by negative (0) and fused positive (1) controls, mean of up to three cultures; higher = more likely to interact. Active = false discovery rate below 0.05 (one-sided t-test) in at least one culture. Nearly all pairs are not hits, and differences among them are mostly noise (correlation between cultures about 0.3); most hits were seen in one culture only. Human sequences are the Swiss-Prot entries looked up by gene name; the clone may be another isoform. NSP2 values were corrected by the authors for a growth advantage. Listed are human proteins with a hit and a random twelfth of the others.

B1: KPNA4, O00629 (protein)
chain: MADNEKLDNQRLKNFKNKGRDLETMRRQRNEVVVELRKNKRDEHLLKRRNVPHEDICEDSDIDGDYRVQNTSLEAIVQNASSDNQGIQLSAVQAARKLLSSDRNPPIDDLIKSGILPILVHCLERDDNPSLQFEAAWALTNIASGTSEQTQAVVQSNAVPLFLRLLHSPHQNVCEQAVWALGNIIGDGPQCRDYVISLGVVKPLLSFISPSIPITFLRNVTWVMVNLCRHKDPPPPMETIQEILPALCVLIHHTDVNILVDTVWALSYLTDAGNEQIQMVIDSGIVPHLVPLLSHQEVKVQTAALRAVGNIVTGTDEQTQVVLNCDALSHFPALLTHPKEKINKEAVWFLSNITAGNQQQVQAVIDANLVPMIIHLLDKGDFGTQKEAAWAISNLTISGRKDQVAYLIQQNVIPPFCNLLTVKDAQVVQVVLDGLSNILKMAEDEAETIGNLIEECGGLEKIEQLQNHENEDIYKLAYEIIDQFFSSDDIDEDPSLVPEAIQGGTFGFNSSANVPTEGFQF
B2: C10orf111, Q8N326 (protein)
chain: MESLQTPQHRENQDKREKEYGVKHMPMGNNAGNLEPEKRKAVRVALSSATAAQNIPSSVHCGCSKQWRLRLPSESLQSRGQVMKRPNNILKLRNLDLLIYPWPELRRRQVASDLMSLLLLPAFSGLTWAPFLFLFTYLPPFLNLLTVGFVSYFLV
B3: ACD, Q96AP0 (protein)
chain: MAGSGRLVLRPWIRELILGSETPSSPRAGQLLEVLQDAEAAVAGPSHAPDTSDVGATLLVSDGTHSVRCLVTREALDTSDWEEKEFGFRGTEGRLLLLQDCGVHVQVAEGGAPAEFYLQVDRFSLLPTEQPRLRVPGCNQDLDVQKKLYDCLEEHLSESTSSNAGLSLSQLLDEMREDQEHQGALVCLAESCLTLEGPCTAPPVTHWAASRCKATGEAVYTVPSSMLCISENDQLILSSLGPCQRTQGPELPPPDPALQDLSLTLIASPPSSPSSSGTPALPGHMSSEESGTSISLLPALSLAAPDPGQRSSSQPSPAICSAPATLTPRSPHASRTPSSPLQSCTPSLSPRSHVPSPHQALVTRPQKPSLEFKEFVGLPCKNRPPFPRTGATRGAQEPCSVWEPPKRHRDGSAFQYEYEPPCTSLCARVQAVRLPPQLMAWALHFLMDAQPGSEPTPM
B4: DCAF4L1, Q3SXM0 (protein)
chain: MEAERLRLLEEEAKLKKVARMGFNASSMLRKSQLGFLNVTSYSRLANELRVSCMERKKVQIRSLDPSSLASDRFNFILASTNSDQLFVVNQVEVEGSKYGIISLRTLKIPSFHVYVLRNLYVPNRKVKSLCWASLNQLDSHVLLCFEGITDAPSCAVLLPASRFLSVHTRVNQPGMLCSFQIPEAWSCAWSLNTRAYHCFSAGLSQQVLLTSVATGHQQSFDTSSDVLAQQFASTAPLLFNGCRSGEIFAIDLRCRNRGKGWRATRLFHDSAVTSVQILQEEQCLMASDMTGKIKLWDLRATKCVRQYEGHVNESAYLPLHVHEEEGIVVAVGQDCYTRIWSLHDAHLLRTIPSPYSASEDDIPSVAFASRLGGIRGAAPGLLMAVRQDLYCFPFS
B5: TMEM236, Q5W0B7 (protein)
chain: MASGRLIKFVVFELLEFAAFSIPTLVITEQFATAYQGTRARSDNTHYWLIISCSIAYVALVTLLIWVPVKVILHKKRYIYRKIKGWRPVLMMCVVLTTLPCLTFSIAVTEVQKSINGSADVLPDMLPDLPVSLVLLSLIMVDIIEKLRIYPLRGSQKSSENGHIHSTSLQHIKTVTEQVRQSPENAASPQATNSTQVSQPSGAMTRSQESVFMGPQEPSCDSGILRMMSRRDVRAELFLWSFLLWSDTIEMVRVAGHPNVYKSSWLYPVYIFSFISLLRITFTPQNPLLNSLSVLLQDLPFVFVRLGLIIALGTITPVLGLCKNILVTLSYIYFNYLTRIRIFSAFEMSPF

The binders below were run against SARS-CoV-2 NSP10 (assay: yeast fitness gain over the viral ORF with no human partner (scaled fitness); higher = more likely to interact).
Experimental: (§1)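 Split mouse DHFR complementation in pooled diploid yeast: human ORFeome clones carry one fragment and viral ORFs the other; barcoded lineages compete in 1 µg/mL methotrexate and fitness is read by barcode sequencing in up to three cultures.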
With B1 the yeast fitness gain was inactive: 0.0202. B2 was tested, and the yeast fitness gain was inactive: 0.0503. For B3, the yeast fitness gain was inactive: 0.0133. For B4, the yeast fitness gain was inactive: 0.0331. With B5 the yeast fitness gain was inactive: -0.0173.

These binders were tested against SARS-CoV-2 NSP12 in the same assay as above.
Experimental: as §1
In the case of B1, the yeast fitness gain is reported as inactive: -0.0349. For B2, the yeast fitness gain was inactive: -0.199. In the case of B3, the yeast fitness gain is reported as inactive: 0.0322. In the case of B5, the yeast fitness gain is reported as inactive: -0.0286.

What follows are binders tested against SARS-CoV-2 NSP13 in the same assay as above.
Experimental: as §1
For B1, the yeast fitness gain was inactive: -0.0137. In the case of B2, the yeast fitness gain is reported as inactive: 0.0733. In the case of B3, the yeast fitness gain is reported as inactive: -0.0106. B5 was tested, and the yeast fitness gain was inactive: 0.126.

These binders were tested against SARS-CoV-2 NSP2 in the same assay as above.
Experimental: as §1
For B1, the yeast fitness gain was inactive: -0.197. For B2, the yeast fitness gain was inactive: -0.0426. In the case of B3, the yeast fitness gain is reported as inactive: -0.141.

Each binder was assayed against SARS-CoV-2 NSP7 in the same assay as above.
Experimental: as §1
In the case of B1, the yeast fitness gain is reported as inactive: -0.0453. For B3, the yeast fitness gain was inactive: -0.199. For B4, the yeast fitness gain was inactive: 0.125.

What follows are binders tested against SARS-CoV-2 NSP8 in the same assay as above.
Experimental: as §1
For B1, the yeast fitness gain was inactive: 0.0714. For B3, the yeast fitness gain was inactive: -0.262.

The binders below were run against SARS-CoV-2 ORF10 in the same assay as above.
Experimental: as §1
In the case of B1, the yeast fitness gain is reported as inactive: 0.00312. For B2, the yeast fitness gain was inactive: -0.284. With B3 the yeast fitness gain was inactive: 0.03.

What follows are binders tested against SARS-CoV-2 ORF3B in the same assay as above.
Experimental: as §1
With B1 the yeast fitness gain was inactive: 0.0916. With B2 the yeast fitness gain was inactive: 0.0147. With B3 the yeast fitness gain was inactive: -0.0432.

Each binder was assayed against SARS-CoV-2 ORF6 in the same assay as above.
Experimental: as §1
With B1 the yeast fitness gain was inactive: -0.00557. With B2 the yeast fitness gain was inactive: -0.0317. In the case of B3, the yeast fitness gain is reported as inactive: -0.0188. With B5 the yeast fitness gain was inactive: -0.0954.

The binders below were run against SARS-CoV-2 ORF7A in the same assay as above.
Experimental: as §1
With B1 the yeast fitness gain was inactive: 0.197. For B2, the yeast fitness gain was inactive: -0.0691. In the case of B3, the yeast fitness gain is reported as inactive: -0.0185. For B4, the yeast fitness gain was inactive: 0.0853. For B5, the yeast fitness gain was inactive: -0.118.

Each binder was assayed against SARS-CoV-2 ORF7B in the same assay as above.
Experimental: as §1
For B1, the yeast fitness gain was inactive: 0.235. In the case of B2, the yeast fitness gain is reported as inactive: -0.116. In the case of B3, the yeast fitness gain is reported as inactive: -0.0569.

The binders below were run against SARS-CoV-2 ORF8 in the same assay as above.
Experimental: as §1
For B1, the yeast fitness gain was inactive: -0.0289. For B2, the yeast fitness gain was inactive: 0.00685. In the case of B3, the yeast fitness gain is reported as inactive: 0.0277. In the case of B5, the yeast fitness gain is reported as inactive: 0.0533.

What follows are binders tested against SARS-CoV-2 ORF9Bwu (the 73-codon ORF) in the same assay as above.
Experimental: as §1
With B1 the yeast fitness gain was inactive: -0.0295. With B3 the yeast fitness gain was inactive: -0.0431.

Each binder was assayed against SARS-CoV-2 NSP5 in the same assay as above.
Experimental: as §1
With B2 the yeast fitness gain was inactive: -0.0659. With B3 the yeast fitness gain was inactive: -0.00107. With B4 the yeast fitness gain was inactive: 0.0281.

The binders below were run against SARS-CoV-2 ORF9B in the same assay as above.
Experimental: as §1
With B2 the yeast fitness gain was inactive: 0.145. With B3 the yeast fitness gain was inactive: 0.0973. With B4 the yeast fitness gain was inactive: 0.0354.

Each binder was assayed against SARS-CoV-2 NSP15 in the same assay as above.
Experimental: as §1
For B3, the yeast fitness gain was inactive: 0.0129.

The binders below were run against SARS-CoV-2 NSP16 in the same assay as above.
Experimental: as §1
B3 was tested, and the yeast fitness gain was inactive: -0.0904.

The binders below were run against SARS-CoV-2 NSP6 in the same assay as above.
Experimental: as §1
In the case of B3, the yeast fitness gain is reported as inactive: 0.0125. With B4 the yeast fitness gain was inactive: -0.0214.

The binders below were run against SARS-CoV-2 NSP9 in the same assay as above.
Experimental: as §1
In the case of B3, the yeast fitness gain is reported as inactive: 0.0909.

These binders were tested against SARS-CoV-2 ORF3A in the same assay as above.
Experimental: as §1
With B3 the yeast fitness gain was inactive: 0.0337.

What follows are binders tested against SARS-CoV-2 S in the same assay as above.
Experimental: as §1
With B3 the yeast fitness gain was inactive: -0.162. B5 was tested, and the yeast fitness gain was inactive: 0.0774.
